Holding throughout (assay): FRET or BRET
(In BRET a luciferase serves as donor, and the signal depends on an acceptor being close.)

One assay addresses T1, Rluc-tagged APJ-S345A (UniProt P35414 1-380, S345A).
T1 sequence: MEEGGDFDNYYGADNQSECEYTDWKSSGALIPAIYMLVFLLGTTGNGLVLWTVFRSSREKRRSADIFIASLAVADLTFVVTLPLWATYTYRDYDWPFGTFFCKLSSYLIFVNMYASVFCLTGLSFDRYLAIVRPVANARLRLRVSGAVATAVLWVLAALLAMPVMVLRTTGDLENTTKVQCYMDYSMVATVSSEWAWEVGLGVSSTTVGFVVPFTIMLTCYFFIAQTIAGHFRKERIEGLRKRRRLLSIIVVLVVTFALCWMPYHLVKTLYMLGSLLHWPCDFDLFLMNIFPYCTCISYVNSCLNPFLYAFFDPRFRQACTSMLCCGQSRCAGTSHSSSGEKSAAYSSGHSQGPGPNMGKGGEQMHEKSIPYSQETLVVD

The target of another assay is T2, Rluc-tagged APJ-S369A (UniProt P35414 1-380, S369A).
T2 sequence: T1 sequence with A345S, S369A

In assay [1] the target is T3, Rluc-tagged WT APJ (apelin receptor) (UniProt P35414 1-380).
T3 sequence: T1 sequence with A345S

The next assay addresses T4, Rluc-tagged APJ-S335A (UniProt P35414 1-380, S335A).
T4 sequence: T1 sequence with S335A, A345S

Another assay concerns the target T5, Rluc-tagged APJ-S339A (UniProt P35414 1-380, S339A).
T5 sequence: T1 sequence with S339A, A345S

For the next assay, the target named is T6, Rluc-tagged APJ-S348A (UniProt P35414 1-380, S348A).
T6 sequence: T1 sequence with A345S, S348A

Changes are numbered by the printed parent chain.

B1: EGFP-tagged β-arrestin2 (natural protein)
chain: not shown
As to B1, the “EC50 of apelin-36 for the BRET between the pair” value with Rluc-tagged APJ-S345A came out at 5.24 nM; in the assay with Rluc-tagged APJ-S369A, 4.89 nM; in assay [1], 5.18 nM; with Rluc-tagged APJ-S335A it was 5.01 nM; with Rluc-tagged APJ-S339A, 8.74 nM; with Rluc-tagged APJ-S348A, 4.98 nM.

These data come from PMC7338617 (Redox Biology, 2020).
